According to PMC10726135:
The other results are listed elsewhere or left out. At the low end of the ranking the order means little. Measured with an extract: partners may take part in the binding.

Biological target: T1, HNF4alpha2 (COS-7 nuclear extract) (UniProt P41235)
T1 sequence: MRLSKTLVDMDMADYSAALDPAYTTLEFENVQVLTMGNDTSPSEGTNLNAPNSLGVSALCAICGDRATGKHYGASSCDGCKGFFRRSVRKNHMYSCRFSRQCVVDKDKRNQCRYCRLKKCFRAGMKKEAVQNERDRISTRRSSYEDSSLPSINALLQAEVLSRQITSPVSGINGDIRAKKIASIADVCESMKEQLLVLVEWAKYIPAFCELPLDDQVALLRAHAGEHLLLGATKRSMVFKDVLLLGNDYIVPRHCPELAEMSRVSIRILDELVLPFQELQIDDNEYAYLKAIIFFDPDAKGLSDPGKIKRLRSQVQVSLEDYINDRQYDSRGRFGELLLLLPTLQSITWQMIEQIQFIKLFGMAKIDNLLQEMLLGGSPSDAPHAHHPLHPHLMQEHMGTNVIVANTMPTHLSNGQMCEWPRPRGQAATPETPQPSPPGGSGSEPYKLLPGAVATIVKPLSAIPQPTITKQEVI
Assay: protein-binding microarray
Conditions: COS-7 nuclear extract on double-stranded Agilent 4x180k PBM; binding buffer, salt, pH and temperature not given; high values mean tight binding; double strand, one strand shown; sequences stand for … in …GCCTAGGGAGATTAGAGTATCGGTCGA

Which binding signal (log2 normalized intensity) does the source give for ATGCAGCCTTGGGCAAGTTACTTAAGCCAT here?
Its binding signal (log2 normalized intensity) is -1.18.

How did the binding signal (log2 normalized intensity) turn out when TTTCTGAGAAACTTCTTTGTGATGTGTGGA was run?
The binding signal (log2 normalized intensity) was 1.83.

TGCAAGCAAACCTGCCCTTTGCTCCAGAGG was tested. Which binding signal (log2 normalized intensity) did it give?
Its binding signal (log2 normalized intensity) is 3.04.

Which binding signal (log2 normalized intensity) does the source give for TCACTCAGTCCACATGGTGTCTTTTGTTGT here?
Its binding signal (log2 normalized intensity) is 1.68.

With GGTCAATGTCCACACCCCAGTTTCATCAAC as the sequence, how does the binding signal (log2 normalized intensity) read?
The binding signal (log2 normalized intensity) was 2.77.

How did the binding signal (log2 normalized intensity) turn out when CCAGGTCGAAGTTTATGTTTACTGTGGATC was run?
The binding signal (log2 normalized intensity) was 2.15.

With TTCAATGGTGCTTTTGATATTGTTGTAAAG as the sequence, how does the binding signal (log2 normalized intensity) read?
Its binding signal (log2 normalized intensity) is 2.36.

TCCAGGGCCGCCCAAGCGAATATGTCAGGC was tested. Which binding signal (log2 normalized intensity) did it give?
The binding signal (log2 normalized intensity) was -1.16.

With TTTCTTCCCTAATGGACATCTCTAGGAACT as the sequence, how does the binding signal (log2 normalized intensity) read?
Its binding signal (log2 normalized intensity) is -1.01.

For TAGGAATCACACAACTTTCATTGAACTGCT, which binding signal (log2 normalized intensity) is on record?
The binding signal (log2 normalized intensity) was -1.23.

GGCTCAGGACAGGTGAGCCCGGCAGAGAGT was tested. Which binding signal (log2 normalized intensity) did it give?
Its binding signal (log2 normalized intensity) is -1.03.

Which binding signal (log2 normalized intensity) does the source give for TCAACCTTCATTCTCATCTTCTATGATAAG here?
Its binding signal (log2 normalized intensity) is 1.16.

How did the binding signal (log2 normalized intensity) turn out when CATAACTGACTGTGTCTGTTTACCCACTTG was run?
Its binding signal (log2 normalized intensity) is 0.744.

Which binding signal (log2 normalized intensity) does the source give for CGACCTCCCCGTCACCCTCCCCGCCACCCC here?
Its binding signal (log2 normalized intensity) is 6.67.

CACAGTACTGTCTTTTTGCCACTAGGGGTC was tested. Which binding signal (log2 normalized intensity) did it give?
Its binding signal (log2 normalized intensity) is 3.13.

How did the binding signal (log2 normalized intensity) turn out when AGAGACAGAGAGAGAGAGAGAATGACCCTT was run?
The binding signal (log2 normalized intensity) was 4.44.

For TGGTGGAGCAAAAAGGCCGTTCAAAGGCAG, which binding signal (log2 normalized intensity) is on record?
The binding signal (log2 normalized intensity) was -1.06.

Which binding signal (log2 normalized intensity) does the source give for GTGATTTATGAAGGGGGGTGGGGAGGCAGG here?
The binding signal (log2 normalized intensity) was -1.16.

Which binding signal (log2 normalized intensity) does the source give for AACTCTAGTGATCTTATCAGCAAGGGCATT here?
The binding signal (log2 normalized intensity) was 1.4.

Which binding signal (log2 normalized intensity) does the source give for GTTCATTTTACAATGCAAACCTAACAGGCT here?
Its binding signal (log2 normalized intensity) is -1.13.

TGTGATCTCTAGACTAAGGGCACAGGGTGA was tested. Which binding signal (log2 normalized intensity) did it give?
Its binding signal (log2 normalized intensity) is 1.32.

TGACACTCGAGGATCAGAGACACGATGTTC was tested. Which binding signal (log2 normalized intensity) did it give?
Its binding signal (log2 normalized intensity) is -1.2.

Which binding signal (log2 normalized intensity) does the source give for CCACAACAGAACCTTGTTTTGTCTTCTGTT here?
Its binding signal (log2 normalized intensity) is 0.794.

For GTTCCAGCTGCTTCAGGAGCCCCCTGGGGG, which binding signal (log2 normalized intensity) is on record?
The binding signal (log2 normalized intensity) was -1.08.

AAGGCGGAAGTACTGCCCTTAACTCCCGGC was tested. Which binding signal (log2 normalized intensity) did it give?
Its binding signal (log2 normalized intensity) is -1.15.

How did the binding signal (log2 normalized intensity) turn out when GGGGAGGGCATGGACTTTGGAATTAAGGAG was run?
Its binding signal (log2 normalized intensity) is 5.45.

For GCCAAAAGTAGGGAGGAGGGGAGGGGCCCA, which binding signal (log2 normalized intensity) is on record?
Its binding signal (log2 normalized intensity) is -1.24.

How did the binding signal (log2 normalized intensity) turn out when ACCGCTCACTGCTCCAGCCACTCATTCTTG was run?
Its binding signal (log2 normalized intensity) is -1.14.

How did the binding signal (log2 normalized intensity) turn out when CAGGCCCCAGGGACTTTGGCCTTACTTGGC was run?
The binding signal (log2 normalized intensity) was 4.14.

For ACAAATGAGCAAACTAATGGAATGTGATAG, which binding signal (log2 normalized intensity) is on record?
The binding signal (log2 normalized intensity) was -1.08.

With AGCCAATATTTGCAAGGCTGTTGGCAGATT as the sequence, how does the binding signal (log2 normalized intensity) read?
The binding signal (log2 normalized intensity) was -1.16.

With CCTGAGGCTGTGGAGGGCAGTGGATGGGGG as the sequence, how does the binding signal (log2 normalized intensity) read?
Its binding signal (log2 normalized intensity) is -1.19.

Which binding signal (log2 normalized intensity) does the source give for CCTTTACCCTGACCTGTCAAGCAATGATCT here?
Its binding signal (log2 normalized intensity) is 1.25.

Which binding signal (log2 normalized intensity) does the source give for CCCCTCAGTTTTTCTCTTTTGACCTTTGGA here?
Its binding signal (log2 normalized intensity) is 8.9.

How did the binding signal (log2 normalized intensity) turn out when AAGTCCAGTCTTATCTGAGACTCAAGGCAA was run?
The binding signal (log2 normalized intensity) was -0.968.

How did the binding signal (log2 normalized intensity) turn out when AAACAAATTTAGCAAGACTGCAAAATAGAC was run?
Its binding signal (log2 normalized intensity) is -1.13.

Which binding signal (log2 normalized intensity) does the source give for AGGGATGGGAACCGACCTTTGGTTCCTGAA here?
The binding signal (log2 normalized intensity) was 4.79.

With TTCCAGGATGAAGGAAGAGGGAAGACCAAA as the sequence, how does the binding signal (log2 normalized intensity) read?
The binding signal (log2 normalized intensity) was -0.968.

With TTTCATCTTCTTAGCCTTTGAACCCCACAC as the sequence, how does the binding signal (log2 normalized intensity) read?
Its binding signal (log2 normalized intensity) is 4.78.

CTTCACATATTTTGAAAGAAAGAGACCTTT was tested. Which binding signal (log2 normalized intensity) did it give?
The binding signal (log2 normalized intensity) was 3.75.
